PubChem BioAssay AID485294 (National Center for Advancing Translational Sciences (NCATS), 2010)
Among all 370,000 compounds or so, about 150 (0.041%) were called active. The inconclusive results got no clear call from the source; some entries with a clear call stand among them for comparison. Calls come from the whole dose curve; as a rule, active = well fitted inhibition curve with a large enough effect; inconclusive = small, poorly fitted or top-dose-only effect; inactive = flat fitted curve, though single readings scatter. Potencies of inconclusive entries are left out as doubtful fits.

The compounds below were run against Beta-lactamase (Escherichia coli (strain K12)) (UniProt P00811) (assay: qHTS Inhibitors of AmpC Beta-Lactamase (assay with detergent)). Details: AmpC hydrolysis of nitrocefin, absorbance 480 nm, 0.01% Triton; activity change, negative = inhibition: at 114 µM (top of the series).
In short: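 AmpC (5.3 nM in the dispensed reagent) in 20 mM phosphate pH 7.0 with 0.01% (detergent screen) or 0.0001% Triton X-100 was preincubated with compounds for 15 min at room temperature. Nitrocefin was then added from an 800 uM solution, and hydrolysis was followed at 480 nm.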
Note: nearly all actives have a fitted effect of over 25% in size.
Potency is the fitted concentration of half-maximal effect; tags give direction and shape of the fitted curve.
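Throughout, for activity change, negative = inhibition: 0% = no-compound wells and -100% = no-enzyme wells.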

UniProt P00811, sequence (P00811 whole entry, looked up): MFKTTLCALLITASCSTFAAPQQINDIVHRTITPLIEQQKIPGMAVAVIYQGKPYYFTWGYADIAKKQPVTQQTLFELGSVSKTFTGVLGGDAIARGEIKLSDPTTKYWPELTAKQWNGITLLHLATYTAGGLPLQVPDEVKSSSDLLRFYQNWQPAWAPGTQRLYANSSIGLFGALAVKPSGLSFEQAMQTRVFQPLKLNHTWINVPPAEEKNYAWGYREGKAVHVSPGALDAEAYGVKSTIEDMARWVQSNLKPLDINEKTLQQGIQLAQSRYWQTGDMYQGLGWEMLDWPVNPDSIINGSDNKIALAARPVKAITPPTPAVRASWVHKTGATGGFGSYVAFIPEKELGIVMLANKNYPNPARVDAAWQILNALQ

Structure (SMILES)	Potency	activity change, negative = inhibition
Cc1ccc([N+](=O)[O-])cc1S(=O)(=O)N1CCCCC1C(=O)O (stereo not drawn)	inconclusive [inhibitor, single point]	
COc1ccc(NC(=O)c2c(-c3c(Cl)cccc3Cl)noc2C)cn1		inactive: -7.77%
Cc1ccc(C(C2=C(O)CC(C)(C)CC2=O)C2C(=O)CC(C)(C)CC2=O)o1 (stereo not drawn)	inconclusive [inhibitor, partial curve, poor fit]	
CCOc1ccc(OCC)c(NC(=O)CCCN2C(=O)c3cccnc3C2=O)c1	inconclusive [inhibitor, full curve]	
CCOC(=O)CSc1nc2ccc(C)cc2[nH]1	inconclusive [inhibitor, partial curve, poor fit]	
CCC(C(=O)N1CCN(C(=O)c2ccco2)CC1)n1sc2ccccc2c1=O (stereo not drawn)	inconclusive [inhibitor, partial curve, poor fit]	
Cc1ccc(C)c(NC(=O)C(Sc2nc3ccccc3c(=O)n2CC(C)C)c2ccccc2)c1 (stereo not drawn)	inconclusive [inhibitor, partial curve]	
Cc1cc(C)n(-c2ccc(C(=O)OCc3nnc(-c4ccccc4)o3)cc2)n1	inconclusive [inhibitor, full curve]	
COc1ccc(-c2nnn(CC(=O)N3CCN(c4ccc(F)cc4)CC3)n2)cc1		inactive: 0.677%
Cn1c(N)c(C(=O)CSc2nnc(-c3ccccc3F)n2C2CC2)c(=O)n(C)c1=O	inconclusive [inhibitor, full curve, poor fit]	
COc1ccc(NC2=NC(C)(C)CS2)cc1		inactive: -0.816%
COc1ccc(CCNC(=O)Nc2cccc([N+](=O)[O-])c2)cc1		inactive: -13.2%
COc1ccc(OC)c2sc(N3CCN(C(=O)c4ccc5ncsc5c4)CC3)nc12		inactive: 5.51%
O=C(c1ccc(Cl)cc1)c1coc2ccc(O)cc12	inconclusive [inhibitor, single point]	
Cc1ccc(C)c(NC(=O)CN(C)C(=O)c2cccc(S(=O)(=O)N3CCCC3)c2)c1	inconclusive [inhibitor, full curve, poor fit]	
COc1ccc2nc(C)c3c(c2c1)OC(C(C)(Cl)Br)C3 (stereo not drawn)		inactive: 8.33%
O=C(CCSCCC(=O)NCc1ccccc1)NCc1ccccc1	inconclusive [inhibitor, partial curve]	
N=c1n(CCO)c2ccccc2n1Cc1ccccc1F		inactive: 8.22%
O=C(COC(=O)C1=COCCO1)Nc1ncc(Cl)cc1Cl	inconclusive [inhibitor, full curve]	
COCCn1c(-c2cc(OC)c(OC)c(OC)c2)nc2oc3ccccc3c(=O)c2c1=O	inconclusive [inhibitor, full curve, poor fit]	
C#CCOCCOCCOCCNc1nc(N2CCN(C(=O)C([C@@H](C)CC)n3cc(C(N)CC(C)C)nn3)CC2)nc(N2CCN(C(=O)[C@H](CCC(=O)O)n3cc(C(N)[C@H](C)CC)nn3)CC2)n1 (stereo partly drawn)		inactive: -4.62%
CC(=O)NCCn1c(SCc2ccccc2F)nc2ccccc2c1=O	inconclusive [inhibitor, single point]	

Structure (SMILES)	Potency	activity change, negative = inhibition
COc1ccccc1N1CCN(CC(O)COc2ccc3c(c2)CCC3)CC1 (stereo not drawn)	inconclusive [inhibitor, partial curve, poor fit]	
CCOc1ccc2nc(N3C(=O)C(O)=C(C(=O)c4ccco4)C3c3ccco3)sc2c1 (stereo not drawn)		inactive: 2.74%
CCC(NC(=O)Nc1cc(Cl)ccc1OC)c1c(-n2cccc2)sc2c1CCN(C)C2 (stereo not drawn)		inactive: 3.86%
CCCn1c(SCC(=O)Nc2ccc3c(c2)OCCO3)n[nH]c1=O	inconclusive [inhibitor, partial curve, poor fit]	
COc1ccc(N/C=C2\C(=O)CCc3c2oc2cc(Cl)c(O)c(Cl)c32)cc1		inactive: -4.65%
CCOc1ccc(-c2c(C)nn3c(C)c(C(=O)NCc4ccc(Cl)cc4)cnc23)cc1OCC		inactive: -8.16%
CCOc1ccc(OCc2cccc(C(=O)N3CCOCC3)c2)cc1	inconclusive [inhibitor, partial curve]	
O=C1C2CC=CCC2C(=O)N1c1ccc(NCCc2ccccc2)c([N+](=O)[O-])c1 (stereo not drawn)	inconclusive [inhibitor, full curve, poor fit]	
Cc1ccc(CN(CC(=O)N/N=C/c2ccco2)S(=O)(=O)c2ccc(C)cc2)cc1	inconclusive [inhibitor, single point]	
O=C(CCC1CCCC1)NCCS(=O)(=O)N1CCN(c2ccc(F)cc2)CC1	inconclusive [inhibitor, full curve]	
O=C(Nc1ncccc1O)c1cccc(S(=O)(=O)N2CCCC2)c1	inconclusive [inhibitor, full curve, poor fit]	
Cc1ccc(NC2CCCN(C(=O)c3cn4cccc(C)c4n3)C2)cc1C (stereo not drawn)		inactive: -1.74%
S=C(c1ccc2c(c1)OCO2)N1CCCCC1	inconclusive [inhibitor, single point]	
O=C(OCn1nnc2ccccc2c1=O)c1ccc2c(=O)n3c(nc2c1)CCC3	inconclusive [inhibitor, partial curve, poor fit]	
O=C(CNC(=S)NC(=O)c1ccccc1)c1ccccc1	inconclusive [inhibitor, partial curve, poor fit]	
Cc1ccc(OCCCCn2ccnc2)c([N+](=O)[O-])c1		inactive: -6.11%
c1ccc(CN2CCN(CCN3CCn4c3nc3ccccc34)CC2)cc1	inconclusive [inhibitor, partial curve, poor fit]	
Cc1ccc(CNC(=O)c2ccc(N3CCC4(CC3)CC(c3ccccc3)=NO4)c(NC(=O)c3ccco3)c2)cc1		inactive: -3.39%
COc1ccc(CC(=O)N/N=C(\C)c2cccnc2)cc1	inconclusive [inhibitor, full curve, poor fit]	
O=C(c1ccccc1CCc1ccccc1)N1CCN(c2ccccn2)CC1	inconclusive [inhibitor, single point]	
Cc1ccc(S(=O)(=O)c2c(N)n(C)c3nc4ccccc4nc23)cc1	inconclusive [inhibitor, full curve, poor fit]	
